Laboratory results taken from PubChem BioAssay AID1745845 (National Center for Advancing Translational Sciences (NCATS), 2022).
“And” between values parts separate entries of the source, which are not always exact repeats. Identical values can stand only once. The whole screen tested about 360,000 compounds, of which about 2,600 (0.72%) were called active. Inconclusive means that the source gave no clear call. Such entries were picked first, then a sample of the others. The call rests on the fitted dose curve; in most records, active means well fitted inhibition curve with a large enough effect; inconclusive means small, poorly fitted or top-dose-only effect; inactive means no such curve, though single readings can be large or run the other way. Potencies of inconclusive entries are doubtful fits and often do not repeat.

experiment: Primary qHTS for Inhibitors of ATXN expression; conditions: HEK-293 ATXN2-luciferase reporter, luminescence, 24 h; activity change, negative = inhibition: at 57 µM (top of the series); further: nearly all actives have a fitted effect of over 55% in size
Summary of the method: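 qHTS (up to 57 uM final) was run with 24 h compound exposure of reporter cells at 37 °C. Each well was multiplexed: SteadyGlo luminescence measured ATXN2-luciferase expression after a fluorogenic Gly-Phe-AFC viability readout (25 uM final).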
On the % scale 0 is the no-effect control and ±100 the full control effect; potency means the concentration at half of the fitted maximal effect; tags describe the fitted curve by direction and shape.

Structure (SMILES) | Potency | activity change, negative = inhibition
Cc1ccc(Cl)cc1N1CCN(C(=O)CCS(=O)(=O)c2ccc3c(c2)NC(=O)CO3)CC1 | inconclusive: 25.1 µM [inhibitor, partial curve, poor fit] | 
CC(C)CCOC(=O)C[N+](C)(C)CCOC1CC2CCC1(C)C2(C)C (stereo not given) | inconclusive: 42.3 µM [inhibitor, partial curve, poor fit] | 
O=C1Nc2ccccc2OC1CC(=O)N1CCOCC1 (stereo not given) |  | inactive: 0.706%
O=C(/C=C/c1ccc(Cl)cc1Cl)Nc1ccc(CN2CCOCC2)cc1 | inconclusive: 3.98 µM [inhibitor, partial curve, poor fit] | 
Cc1ccc2[nH]c(O)c(N=Nc3nc4ccccc4s3)c2c1 | inconclusive: 22.4 µM [inhibitor, partial curve, poor fit] | 
CCN(CC)c1cc(C)c2cc(NC(=O)c3cc(OC)cc(OC)c3)ccc2n1 | active: 17.8 µM | 
CCn1ccc2c(OCC(=O)Nc3ccc(C)c(Cl)c3)cccc2c1=O | inconclusive: 25.1 µM [inhibitor, single point] | 
CCc1ccc2[nH]c(=O)c(CN(Cc3ccccc3OC)Cc3nnnn3Cc3ccco3)cc2c1 | inconclusive: 39.8 µM [inhibitor, single point] | 
Cc1ccc(C(=O)Nc2cc3ccccc3oc2=O)cc1 | inconclusive: 1.58 µM [inhibitor, full curve, poor fit] | 
c1ccc(-c2nc3c(ccc4ccccc43)[nH]2)nc1 |  | inactive: 19.4%
CCOc1ccc(-c2c(C(=O)N/N=C/c3ccc(C)s3)nnn2-c2nonc2N)cc1 |  | inactive: -9.99%
CN(C)CCNC(=S)Nc1cccc(Cl)c1 |  | inactive: -24%
CCOC(=O)C1=C(CSc2nc(-c3ccccc3)ccc2C#N)OC(N)=C(C#N)C1c1ccc(OC)cc1 (stereo not given) |  | inactive: 87.5%
N=c1sccn1CC(=O)Nc1cc(Cl)ccc1Oc1ccccc1 | inconclusive: 11.2 µM [inhibitor, partial curve, poor fit] | 
CCCC(=O)c1ccc(N2CCN(C(=O)c3ccccc3Br)CC2)c(F)c1 |  | inactive: -15.6%
NC(=S)N/N=C/c1ccc(-c2cc(Cl)ccc2Cl)o1 |  | inactive: 5.8%
COc1ccc2c(c1)CCc1c(C(=O)Nc3ccn(Cc4ccc(C)cc4)n3)noc1-2 | active: 10 µM | 
Cc1ccc(/C=N/NC(=O)CSc2nnc(-c3ccc(Cl)cc3)n2-c2ccc(Cl)cc2)o1 | inconclusive: 20 µM [inhibitor, partial curve] | 
CC1(CC(=O)N/N=C/c2cc(Br)c(O)cc2O)OCCO1 | inconclusive: 3.55 µM [inhibitor, full curve, poor fit] | 
O=[N+]([O-])c1cccc(S(=O)(=O)Nc2nc3ccccc3nc2Nc2cccc(S(=O)(=O)N3CCCCC3)c2)c1 | inconclusive: 8.91 µM [inhibitor, single point] | 
CCN(CC)C(=O)c1sc2c(c1C)c(=O)n(CCc1ccccc1)c(=O)n2Cc1ccc(C)cc1 | inconclusive: 39.8 µM [inhibitor, single point] | 
COc1ccc(S(=O)(=O)Nc2ccccc2OC)cc1N=Nc1c(O)[nH]c(=S)[nH]c1=O | inconclusive: 28.2 µM [inhibitor, partial curve, poor fit] | 

Structure (SMILES) | Potency | activity change, negative = inhibition
Cc1ccc(NC(=O)CSCCc2ccccn2)nc1 | inconclusive: 39.8 µM [inhibitor, partial curve, poor fit] | 
CC(=O)Nc1ccc(S(=O)(=O)N2CCN(c3nc(NC4CCCC4)c4ccccc4n3)CC2)cc1 | inconclusive: 31.6 µM [inhibitor, single point] | 
C/C=C/COC(=O)c1[nH]c2c(c1C)C(=O)CC(c1ccco1)C2 (stereo not given) | inconclusive: 7.94 µM [inhibitor, full curve, poor fit] | 
CSC1(SC2=NCCN2)SC2(NCCN2)S1 | inconclusive: 35.5 µM [inhibitor, single point] | 
COc1cccc(OC)c1OCCCN1CCC(Cc2ccccc2)CC1 |  | inactive: -11.9%
N#Cc1c(N)nc2c3c(sc(=N)c2c1N)NC(=O)CC3c1ccccc1Cl (stereo not given) | inconclusive: 7.94 µM [inhibitor, full curve, poor fit] | 
CC(=O)C(=Cc1cccc(C#N)c1)C(=O)c1ccccc1 | inconclusive: 39.8 µM [inhibitor, single point] | 
CCOC(=S)NC(=O)c1sc2ccccc2c1Cl |  | inactive: -6.56%
Cc1cc(C)nc(SC2=CS(=O)(=O)c3ccccc32)n1 | inconclusive: 39.8 µM [inhibitor, single point] | 
Cc1ccc(C(=O)c2cn(Cc3cc(C)ccc3C)c3nc(C)ccc3c2=O)cc1 | inconclusive: 39.8 µM [inhibitor, single point] | 
Cc1nc2ccccc2c(=O)n1NC(=O)c1ccc([N+](=O)[O-])cc1 | inconclusive: 37.7 µM [inhibitor, single point] | 
CC(C)=CC(=O)NCc1c(Cl)cccc1-n1cccc1 |  | inactive: 3.18%
COc1ccc(C(=O)/C(=C\c2ccco2)N2C=CC=CC2=C(C#N)C#N)cc1 | active: 14.1 µM | 
O=C(CNC(c1ccccc1)c1ccccc1)Nc1ccccc1-c1ccccc1 | inconclusive: 35.5 µM [inhibitor, partial curve, poor fit] | 
CCN(CC)c1ccc(/C=N/NC(=S)NC)c(O)c1 | inconclusive: 29.9 µM [inhibitor, partial curve, poor fit] | 
Cc1ccc(Cn2c(CN3CCC(C(=O)NCc4cccnc4)CC3)cc3ccccc32)cc1 | inconclusive: 39.8 µM [inhibitor, single point] | 
C(#CCN1CCCC1)CC(c1ccccc1)c1ccccc1 |  | inconclusive: -41% [inhibitor]
COc1cc(/C=N/Nc2ccc(Cl)c(C(=O)O)c2)ccc1OC(=O)c1ccco1 | inconclusive: 37.7 µM [inhibitor, single point] | 
COc1ccc(NC(=O)C(Cc2ccccc2)n2cccc2)cc1 (stereo not given) |  | inactive: 5.01%
COC(=O)C1=C(C)NC(=O)NC1c1ccc(N2CCC(c3ccccc3)=N2)cc1 (stereo not given) | inconclusive: 7.52 µM [inhibitor, partial curve, poor fit] | 
CCc1nc2ccc(C(=O)NCCc3c[nH]c4ccccc34)cn2c1N(C)CCCc1ccccc1 | inconclusive: 25.1 µM [inhibitor, partial curve, poor fit] | 
Cc1nn(-c2ccccc2)c(Cl)c1C(=O)NCCCCNC(=O)c1c(C)nn(-c2ccccc2)c1Cl |  | inactive: 7.11%

Structure (SMILES) | Potency | activity change, negative = inhibition
O=C(Nc1ccccn1)C1CCN(S(=O)(=O)c2ccc3ccccc3c2)CC1 | inconclusive: 5.01 µM [inhibitor, partial curve, poor fit] | 
COc1ccc(/C=N/NC(=O)c2[nH]c3ccc(Cl)cc3c2-c2ccccc2)c(C(=O)O)c1OC | inconclusive: 37.7 µM [inhibitor, single point] | 
COc1ccc(CNC(=O)CCS(=O)(=O)c2ccc3c(c2)NC(=O)CS3)cc1 |  | inactive: 7.78%
CCN(CC)CCN(C(=O)c1ccc2c(c1)CCCC2)c1nc2cc(OC)c(OC)cc2s1 | inconclusive: 10 µM [inhibitor, partial curve, poor fit] | 
CC(C)(C)CC(C)(C)c1ccc(O)c(Cc2ccc(Cl)cc2Cl)c1 | active: 22.4 µM and inconclusive: 31.6 µM [inhibitor, single point] | 
Cc1ccc(C(=O)Nc2nc(=O)n(C(=O)CC(C)C)s2)cc1 | inconclusive: 39.8 µM [inhibitor, partial curve, poor fit] | 
OCC1(CC2CCCCO2)CCN(C/C=C/c2ccccc2)CC1 (stereo not given) |  | inactive: -35.4%
Cc1ccc(C(C)C)c(OCC(=O)Nc2ccc(N3CCN(S(C)(=O)=O)CC3)cc2)c1 | inconclusive: 20 µM [inhibitor, partial curve, poor fit] | 
CCOc1ccccc1NC(=O)c1ccc2c(c1)CCN2S(C)(=O)=O |  | inactive: 18.2%
O=C(C[C@H]1C/C=C\C[C@H](NC(=O)OCC2c3ccccc3-c3ccccc32)C(=O)O[C@H](c2ccccc2)CNC1=O)N[C@H](CO)Cc1ccccc1 | inconclusive: 17.8 µM [inhibitor, partial curve, poor fit] | 
CN(Cc1ccccc1)C(=O)c1cccc(NC(=O)Cc2ccc([N+](=O)[O-])cc2)c1 | inconclusive: 25.1 µM [inhibitor, partial curve, poor fit] | 
COc1ccc(NC(=O)c2ccc3oc(=O)c(S(=O)(=O)c4ccc(F)cc4)cc3c2)cc1OC |  | inactive: -25.4%
N#Cc1c(N)nc(SCc2ccccn2)c(C#N)c1-c1cccs1 | inconclusive: 31.6 µM [inhibitor, single point] | 
Cc1ccc(-n2cnc3cc(C(=O)NCCC4=CCCCC4)ccc32)c(C)c1 | inconclusive: 39.8 µM [inhibitor, single point] | 
NC(=S)n1[nH]c(-c2ccc([N+](=O)[O-])cc2)c(N=Nc2ccccc2[N+](=O)[O-])c1=O | inconclusive: 1.34 µM [inhibitor, partial curve, poor fit] | 
Cc1ccc(-c2cc3c(nn2)-c2ccccc2C3=O)cc1 | active: 3.55 µM | 
[O-]C(=C(C(=S)Nc1cccc2ccccc12)[n+]1ccccc1)c1ccc2c(c1)OCCO2 |  | inactive: -21.7%
O=C(NNC1=Nc2cc([N+](=O)[O-])ccc2OC1)c1ccccc1Cl |  | inactive: -10.2%
CCc1cccc(CC)c1NC(=S)NCCc1c(C)[nH]c2ccccc12 | inconclusive: 39.8 µM [inhibitor, single point] | 
Cc1ccc(Nc2nc(-c3ccccc3)nc3ccccc23)cc1 | inconclusive: 35.5 µM [inhibitor, single point] | 
COc1ccccc1/C=C/CN1CCCC(CO)(Cc2cccc(Cl)c2)C1 (stereo not given) | inconclusive: 10.6 µM [inhibitor, partial curve, poor fit] | 
